The values below come from patent US20160251438A1 (LUDWIG INSTITUTE FOR CANCER RESEARCH, published 2016).

This assay addresses T1, human GARP (human, UniProt Q14392 20-662).
T1 construct: also called hGARP; free GARP
T1 sequence: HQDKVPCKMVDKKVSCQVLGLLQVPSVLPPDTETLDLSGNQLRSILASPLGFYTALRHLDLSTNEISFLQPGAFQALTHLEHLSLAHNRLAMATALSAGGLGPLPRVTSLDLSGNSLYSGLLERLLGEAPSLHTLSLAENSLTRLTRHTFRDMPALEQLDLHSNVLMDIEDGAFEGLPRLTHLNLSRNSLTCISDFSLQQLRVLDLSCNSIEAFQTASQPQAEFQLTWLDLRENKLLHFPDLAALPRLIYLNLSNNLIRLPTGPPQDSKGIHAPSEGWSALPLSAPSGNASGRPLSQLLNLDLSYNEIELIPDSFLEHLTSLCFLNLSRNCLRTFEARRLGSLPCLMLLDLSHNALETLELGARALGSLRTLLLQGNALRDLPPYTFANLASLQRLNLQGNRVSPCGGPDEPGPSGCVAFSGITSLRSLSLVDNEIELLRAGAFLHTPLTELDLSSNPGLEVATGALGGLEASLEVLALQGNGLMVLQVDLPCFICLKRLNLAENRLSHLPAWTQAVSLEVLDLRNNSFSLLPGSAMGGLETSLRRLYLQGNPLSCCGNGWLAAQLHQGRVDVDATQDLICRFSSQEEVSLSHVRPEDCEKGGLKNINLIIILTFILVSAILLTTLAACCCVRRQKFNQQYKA
Put plainly: FACS with anti-mLAP on BW+hGARP.

B1: murine TGF-β1 (ligand)
chain: not shown
notes: also called mTGF-β1
On to B1, for which the binding result is “binds”.
